# Screen size: about 390,000 compounds; about 17,000 (4.4%) were called active. The inconclusive results got no clear call from the source; some entries with a clear call stand among them for comparison. The call rests on the fitted dose curve; in most records, active means well fitted inhibition curve with a large enough effect; inconclusive means small, poorly fitted or top-dose-only effect; inactive means no such curve, though single readings can be large or run the other way. Potencies of inconclusive entries are doubtful fits and often do not repeat.
# Target: Lysine-specific demethylase 4A (Homo sapiens) (UniProt O75164)
# Chain of UniProt O75164 (O75164 whole entry, looked up, the tested form may be a part): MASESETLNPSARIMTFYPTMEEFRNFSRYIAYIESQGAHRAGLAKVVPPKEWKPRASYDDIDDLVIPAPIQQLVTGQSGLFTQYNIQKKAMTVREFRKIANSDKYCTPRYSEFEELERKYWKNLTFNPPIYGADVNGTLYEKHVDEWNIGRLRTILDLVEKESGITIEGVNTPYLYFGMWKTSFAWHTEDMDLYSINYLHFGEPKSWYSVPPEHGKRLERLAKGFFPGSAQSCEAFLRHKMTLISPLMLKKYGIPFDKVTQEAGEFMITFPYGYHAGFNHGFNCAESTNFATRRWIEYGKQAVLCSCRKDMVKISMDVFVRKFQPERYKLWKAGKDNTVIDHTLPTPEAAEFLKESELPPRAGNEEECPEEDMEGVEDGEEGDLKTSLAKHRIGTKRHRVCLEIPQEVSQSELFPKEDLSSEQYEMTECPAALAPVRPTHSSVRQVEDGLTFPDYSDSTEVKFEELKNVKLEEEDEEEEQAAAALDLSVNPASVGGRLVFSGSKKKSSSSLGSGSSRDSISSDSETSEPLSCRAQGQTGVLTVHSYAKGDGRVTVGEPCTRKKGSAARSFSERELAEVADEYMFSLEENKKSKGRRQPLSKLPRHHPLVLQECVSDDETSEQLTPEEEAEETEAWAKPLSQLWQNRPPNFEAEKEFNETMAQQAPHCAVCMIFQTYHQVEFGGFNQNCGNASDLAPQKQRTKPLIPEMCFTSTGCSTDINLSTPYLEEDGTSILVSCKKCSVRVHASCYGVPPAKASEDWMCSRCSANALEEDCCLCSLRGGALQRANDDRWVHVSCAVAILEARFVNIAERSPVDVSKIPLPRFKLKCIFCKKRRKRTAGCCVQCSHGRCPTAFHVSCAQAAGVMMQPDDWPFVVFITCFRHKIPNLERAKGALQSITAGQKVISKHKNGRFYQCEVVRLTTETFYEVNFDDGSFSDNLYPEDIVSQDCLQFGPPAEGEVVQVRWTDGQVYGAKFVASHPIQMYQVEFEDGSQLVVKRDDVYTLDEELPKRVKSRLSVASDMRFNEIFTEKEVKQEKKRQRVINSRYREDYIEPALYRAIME
# Assay: qHTS Assay for Inhibitors of JMJD2A-Tudor Domain; further: nearly all actives have a fitted effect of over 50% in size
# Conditions: AlphaScreen JMJD2A-Tudor / H3K4me3 peptide binding; series mostly up to 114 µM
# Potency means the concentration at half of the fitted maximal effect; tags describe the fitted curve by direction and shape.
row,SMILES,Potency
1,CC(C)(C)NC(=S)NC(=O)C12CCC3CC(CC(C3)C1)C2,"inconclusive: 56.2 µM [inhibitor, partial curve]"
2,Cn1c(N)c(Sc2ccccc2[N+](=O)[O-])c(=O)n(C)c1=O,inactive
3,Cc1cccc(NC(=O)N2CCC(CN3CCCCCC3)CC2)c1C,inactive
4,COc1ccc(-c2onc(C)c2C)cc1S(=O)(=O)N1CCN(c2cc(C)ccc2C)CC1,inactive
5,CCCCN(C(=O)c1cccc(S(=O)(=O)N2CCN(Cc3ccccc3)CC2)c1)c1ccccc1,"inconclusive: 44.7 µM [inhibitor, partial curve]"
6,CCN1CCN(c2ccc(NC(=O)c3ccc(Cl)c(S(=O)(=O)N4CCCC4)c3)cc2)CC1,"inconclusive: 44.7 µM [inhibitor, partial curve]"
7,O=C(O)c1nnn(-c2cccc(C(F)(F)F)c2)c1-c1ccccc1,inactive
8,CC1CCN(c2ccc(S(=O)(=O)NC3=NCCCCC3)cc2[N+](=O)[O-])CC1,"inconclusive: 89.1 µM [inhibitor, single point]"
9,COCCNCC#CCOc1ccc(OC)cc1,active: 7.94 µM
10,COc1ccc(NC(=O)c2cc(-c3ccc(C)o3)nc3ccccc23)c(OC)c1,"inconclusive: 44.7 µM [inhibitor, partial curve]"
11,COC(=O)C1=C(C)N(c2ccc(OC)cc2)C(=O)/C1=C\c1cccs1,"inconclusive: 25.1 µM [inhibitor, single point]"
12,S=C(NCc1ccc(Cl)cc1)NCc1ccccn1,inactive
13,COc1ccc(OC)c(NC(=O)N2CC3CCCN3c3ccccc32)c1 (configuration not stated),active: 39.8 µM
14,Cc1ccnc(Nc2nc(-c3ccc(O)c(O)c3)cs2)c1,active: 56.2 µM
15,CN(CC(=O)Nc1cc([N+](=O)[O-])ccc1Cl)Cc1ccc(Br)cc1,"inconclusive: 25.1 µM [inhibitor, full curve]"
16,O=C(CN1CCN(C(c2ccccc2)c2ccccc2)CC1)NC(=O)NCc1ccco1,"inconclusive: 50.1 µM [inhibitor, partial curve]"
17,CCOC(=O)Cc1c(C(=O)OCC)nnc2c(-c3ccccc3)c(C)nn12,"inconclusive: 56.2 µM [inhibitor, partial curve]"
18,COc1ccc(NC(=O)c2cc([N+](=O)[O-])ccc2NC(=O)CNC2CCCCC2C)c(OC)c1 (configuration not stated),"inconclusive: 28.2 µM [inhibitor, partial curve]"
19,CC1CCc2c(c3ccccc3n2C(=O)CCl)C1 (configuration not stated),"inconclusive: 56.2 µM [inhibitor, partial curve]"
20,Cc1nc(S/C(=C\c2ccc(-c3ccc(C(=O)O)c(Cl)c3)o2)C(=O)O)n[nH]1,active: 25.1 µM
21,COc1cc(O)cc2cc3c(c(O)c12)C(=O)CC(C)(O)O3 (configuration not stated),"inconclusive: 79.4 µM [inhibitor, partial curve]"
22,CCN(CC)c1ccc(N)cc1,active: 17.8 µM
23,COc1ccc(S(=O)(=O)NCC(c2ccc(N(C)C)cc2)N2CCc3ccccc32)cc1F (configuration not stated),active: 20 µM
24,Cc1ccc(C(=O)OCC(=O)c2ccc(CC(=O)N3CCOCC3)s2)cc1C,"inconclusive: 56.2 µM [inhibitor, partial curve]"

row,SMILES,Potency
1,O=S(=O)(c1cccc2nsnc12)N1CCN(C/C=C\c2ccccc2)CC1,"inconclusive: 50.1 µM [inhibitor, partial curve]"
2,COc1ccc(-c2cc(C(=O)NCCc3ccc(OC)c(OC)c3)c3c(-c4ccc(F)cc4)[nH]nc3n2)cc1,inactive
3,Cc1cccc(NCc2nnc(-c3ccccc3)o2)c1C,active: 79.4 µM
4,Cc1cc(C)n(-c2nc(C)c(C)c(=O)n2CC(=O)Nc2cccc([N+](=O)[O-])c2)n1,"inconclusive: 79.4 µM [inhibitor, partial curve]"
5,C#CCOCCOCCOCCNc1nc(N2CCN(C(=O)CCCCCCCCCCNC(=O)[C@H](CCCCN)n3cc(CCO)nn3)CC2)nc(N2CCN(C(=O)CCCCCCCCCCNC(=O)[C@H](CCCN=C(N)N)n3cc(C[C@@H](C)CC)nn3)CC2)n1,active: 44.7 µM
6,CCOc1ccc(N(C(=O)/C=C/C(=O)Nc2cc(C)on2)C(C(=O)NC2CCCC2)c2ccccc2C)cc1 (configuration not stated),"inconclusive: 28.2 µM [inhibitor, full curve]"
7,COc1cc2ccccc2cc1C(=O)N(CCN(C)C)c1nc2c(OC)ccc(OC)c2s1,active: 39.8 µM
8,CC(=O)Nc1ccc(Nc2nc(C)cc(C)n2)cc1,inactive
9,C(=N\N(c1ccccc1)c1ccccc1)/c1ccccn1,inactive
10,O=C(NCCN1CCCCC1)Nc1ccc([N+](=O)[O-])cc1,inactive
11,COc1cc(CN2CCC(Cc3ccccc3)CC2)cc(OC)c1OC,active: 25.1 µM
12,O=C1c2ccccc2C(=O)N1CCN1CCc2ccccc21,"inconclusive: 31.6 µM [inhibitor, partial curve]"
13,Cc1ccc(C)c(N2CCN(C(=O)c3ccc(Cl)c(NC4=NC5CS(=O)(=O)CC5S4)c3)CC2)c1 (configuration not stated),"inconclusive: 56.2 µM [inhibitor, partial curve]"
14,Cn1c(=O)[nH]c(=O)c2c1nc(Br)n2C/C=N/NC(=O)c1ccccc1,inactive
15,CCN1C=C(Cc2cccs2)C2=C(C1)C(c1cccs1)C(C#N)=C(N)O2 (configuration not stated),"inconclusive: 50.1 µM [inhibitor, partial curve]"
16,C=CCSc1nccc(-c2nn(-c3ccc(C)cc3)ccc2=O)n1,inactive
17,CSc1ccc(CCNC(=O)c2cc3cc4cc(C)ccc4nc3s2)cc1,"inconclusive: 56.2 µM [inhibitor, partial curve]"
18,C[C@@H](C(=O)Nc1ccccc1N1CCOCC1)N1C(=O)C2CCCCC2C1=O (some centres not stated),"inconclusive: 17.8 µM [inhibitor, partial curve]"
19,COc1ccccc1NS(=O)(=O)c1cc(NC(=O)C(C)C)ccc1N1CCCCC1,"inconclusive: 50.1 µM [inhibitor, partial curve]"
20,Cc1ccc(S(=O)(=O)n2cnc3cc([N+](=O)[O-])ccc32)c(C)c1,"inconclusive: 89.1 µM [inhibitor, single point]"
21,CCOC(=O)c1c(C)oc2c1c(C=NC1CCS(=O)(=O)C1)c(O)c1ccccc12 (configuration not stated),inactive
22,Cc1ccc(/C=C2/Sc3ccccc3N(CC(=O)NCC3CCCO3)C2=O)cc1 (configuration not stated),inactive
23,CCOC(=O)C1=C(CN2CCc3ccccc32)NC(=O)NC1c1ccc(Cl)cc1 (configuration not stated),"inconclusive: 39.8 µM [inhibitor, full curve]"
24,O=C(NCCc1ccccn1)c1ccc2nc(Cc3ccccc3F)oc2c1,inactive

row,SMILES,Potency
1,CCCCN(CCCC)C(=O)C1(P(=O)(c2ccccc2)c2ccccc2)CCC1,inactive
2,CCNC(=S)N/N=C1\C(=O)c2cccc3cccc1c23,inactive
3,COc1cc(C2Nc3ccccc3-c3nnc(SCc4ccc(C)cc4)nc3O2)cc(OC)c1O (configuration not stated),"inconclusive: 44.7 µM [inhibitor, partial curve]"
4,Cc1sc2nc(CSc3cccc(C(F)(F)F)c3)[nH]c(=O)c2c1C,"inconclusive: 70.8 µM [inhibitor, single point]"
5,CCn1cc(Br)c(C(=O)Nc2sc3c(c2C(N)=O)CCCC3)n1,inactive
6,Cc1cc(NC(=O)c2cccn2-c2nnc(N3CCCCC3)s2)ccc1Br,"inconclusive: 50.1 µM [inhibitor, partial curve, poor fit]"
7,CCn1cc(S(=O)(=O)c2ccc(C)cc2)[nH]c1=O,inactive
8,CC(CS(=O)(=O)c1ccc2c(c1)NC(=O)CS2)C(=O)NCc1ccccc1Cl (configuration not stated),active: 25.1 µM
9,CCOC(=O)Cc1csc(NC(=O)NC2(C(F)(F)F)Oc3ccccc3O2)n1,inactive
10,CCCCNC(=O)c1ccc2c(c1)NC(=O)C(CS(=O)(=O)Cc1ccc(C)cc1)N2 (configuration not stated),inactive
11,Cc1ccc(CCNC(=O)C23CN(Cc4ccccc4)CC2C(c2ccc([N+](=O)[O-])cc2)=NO3)cc1 (configuration not stated),"inconclusive: 20 µM [inhibitor, full curve]"
12,CC(=O)N1CCc2c(sc3c2c(=O)n(-c2ccc(C)cc2)c(=O)n3Cc2ccccc2C)C1,"inconclusive: 44.7 µM [inhibitor, partial curve]"
13,O=C(CCC(=O)N1CCOc2ccccc21)Nc1cc(F)ccc1F,"inconclusive: 17.8 µM [inhibitor, full curve, poor fit]"
14,c1ccc(CN2CCN(CCOCCOc3cccc4ccccc34)CC2)cc1,active: 1.78 µM
15,c1ccc(CN2CCN(C3CCCSc4ccccc43)CC2)cc1 (configuration not stated),"inconclusive: 56.2 µM [inhibitor, partial curve]"
16,CC(/C=C1\SC(=S)N(NC(=O)c2ccc(O)cc2)C1=O)=C\c1ccccc1,"inconclusive: 50.1 µM [inhibitor, partial curve]"
17,Cc1cc(NCc2ccccn2)ccc1Br,active: 8.91 µM
18,CCCN1C(=O)C(Cc2nc3ccccc3c(=O)n2-c2ccc(OC)cc2)c2cc(C)ccc21 (configuration not stated),"inconclusive: 22.4 µM [inhibitor, full curve]"
19,Cc1cnc(NC(=O)C2COc3ccccc3O2)s1 (configuration not stated),"inconclusive: 50.1 µM [inhibitor, partial curve]"
20,COc1ccc(C(=O)Sc2nncc3ccccc23)cc1,"inconclusive: 56.2 µM [inhibitor, partial curve]"
21,Cc1ccc(OCCCCNC2CCCCC2)c(C)c1,active: 28.2 µM
22,O=C(NN1C(=O)C2C(C1=O)C1C=CC2C12CC2)c1ccc(Cl)cc1 (configuration not stated),inactive
23,O=C(Nc1ccc(N2CCOCC2)cc1)c1ccc2c(c1)OCO2,active: 20 µM
24,O=C(Nc1nnc(-c2ccncc2)o1)c1ccc(Br)s1,"inconclusive: 56.2 µM [inhibitor, partial curve]"
